{"source": "PubChem BioAssay AID1259407", "about": "(Chemical Carcinogenesis Research Information System (CCRIS), 2018)", "test_system": "CCRIS mutagenicity, Ames/micronucleus/aberration tests", "assay": "CCRIS mutagenicity studies", "details": "Test System: AMES SALMONELLA TYPHIMURIUM", "note": "The source holds more than one record for some entries. Only these are listed. How the calls were made is not given here. The source may hold further records. The records of an entry are repeats in other runs, samples, wells, individuals or studies. Records carry a tag for their origin. The letters are not those of the source and start again with each entry.", "data": [{"smiles": "COc1cc([C@@H]2c3cc4c(cc3[C@@H](O[C@@H]3O[C@@H]5CO[C@@H](c6cccs6)O[C@H]5[C@H](O)[C@H]3O)[C@H]3COC(=O)[C@H]23)OCO4)cc(OC)c1O", "values": [{"measurement": "mutagenic call", "setting": "Strain/Indicator: TA102, Metabolic Activation: NONE, Method: STANDARD PLATE", "value": "active; positive [study A, 250 µg/plate] and inactive; negative [study B, 0 to 100 µg/plate]"}]}, {"smiles": "O=C1c2ccccc2C(=O)c2ccccc21", "values": [{"measurement": "mutagenic call", "setting": "Strain/Indicator: TA98, Metabolic Activation: HAMSTER, LIVER, S-9, AROCLOR 1254 (30%), Method: PREINCUBATION", "value": "active; positive; 97% pure [study A] and active; positive [study B]"}, {"measurement": "mutagenic call", "setting": "Strain/Indicator: TA98, Metabolic Activation: RAT, LIVER, S-9, AROCLOR 1254 (30%), Method: PREINCUBATION", "value": "active; positive; 97% pure [study A] and active; positive [study B]"}, {"measurement": "mutagenic call", "setting": "Strain/Indicator: TA100, Metabolic Activation: HAMSTER, LIVER, S-9, AROCLOR 1254 (30%), Method: PREINCUBATION", "value": "active; positive; 97% pure [study A] and active; positive [study B]"}, {"measurement": "mutagenic call", "setting": "Strain/Indicator: TA100, Metabolic Activation: RAT, LIVER, S-9, AROCLOR 1254 (30%), Method: PREINCUBATION", "value": "active; positive; 97% pure [study A] and active; positive [study B]"}]}, {"smiles": "c1ccc2ncccc2c1", "values": [{"measurement": "mutagenic call", "setting": "Strain/Indicator: TA1537, Metabolic Activation: RAT, LIVER, S-9, AROCLOR 1254, Method: STANDARD PLATE", "value": "active; positive [study A] and inactive; negative [study B, 5 to 200 µg/plate]"}]}]}
